# Experimental data published in a collection of fitness landscapes (doi:10.1016/j.celrep.2020.107928).
# Whole data set: some 81,000 sequences, median “one-hybrid fitness for binding parS DNA” near -0.17, cut for the highest 2% near 0.51. Some of the results follow.
# B1: Caulobacter ParB omega fusion; a variant is named by its letters at X, in order, B8GW30 (parent)
# chain: MESVVVGEPGMSEGRRGLGRGLSALLGEVDAAPAQAPGEQLGGSREAPIEILQRNPDQPRRTFREEDLEDLSNSIREKGVLQPILVRPSPDTAGEYQIVAGERAWRAAQRAGLKTVPIMVRELDDLAVLEIGIIENVQRADLNVLEEALSYKVLMEKFERTQENIAQTIGKSXSHVANXMRLLXLPDEVQSYLVSGELTAXHARAIAAAADPVALAKQIIEGGLSVRETEALARKAPNLSAGKSKGGRPPRVKDTDTQALESDLSSVLGLDVSIDHRGSTGTLTITYATLEQLDDLCNRLTRGI
# Variants of: B1
# Assay: one-hybrid fitness for binding parS DNA (scaled: cognate 1, non-cognate 0); higher = stronger binding
# Settings: with parS DNA site
# Procedure, shortened: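 Fitness here means the log change in variant-to-wild-type read ratio between plasmids sequenced before and after selection. That scale was set so cognate equals 1 and non-cognate equals 0. The selection was a bacterial one-hybrid screen of Caulobacter ParB libraries, four specificity codons randomised, in E. coli USO carrying a HIS3 reporter with the site 19 bp from the promoter, grown 48 hours at 37°C on M9-minus-histidine with 0.1 mM IPTG and 5 mM 3-AT.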
row,Variant,one-hybrid fitness for binding parS DNA
1,FCRG,≤ 0.2
2,MSRS,≤ 0.2
3,CEVW,≤ 0.2
4,IWNS,≤ 0.2
5,FVDR,≤ 0.2
6,LLHC,≤ 0.2
7,PGVC,≤ 0.2
8,SAPD,≤ 0.2
9,DALE,≤ 0.2
10,LPQC,≤ 0.2
11,EQDT,≤ 0.2
12,RTPD,≤ 0.2
13,AKVC,≤ 0.2
14,QCDC,≤ 0.2
15,LQSC,≤ 0.2
16,LQEC,≤ 0.2
17,PPMA,≤ 0.2
18,GFQT,≤ 0.2
19,KEHL,≤ 0.2
20,RKRN,0.347
21,ACKA,≤ 0.2
22,PTSM,≤ 0.2
23,QEAG,≤ 0.2
24,VINV,≤ 0.2

row,Variant,one-hybrid fitness for binding parS DNA
1,NNIL,≤ 0.2
2,SNCI,≤ 0.2
3,QDNI,≤ 0.2
4,RHLN,0.376
5,SWRL,≤ 0.2
6,HHKY,≤ 0.2
7,QDDG,≤ 0.2
8,HRST,≤ 0.2
9,RSWG,0.93
10,PKHY,≤ 0.2
11,SRRD,≤ 0.2
12,CVTI,≤ 0.2
13,PAAI,≤ 0.2
14,LEAT,≤ 0.2
15,AANC,≤ 0.2
16,PHSE,≤ 0.2
17,PAQS,≤ 0.2
18,YYNS,≤ 0.2
19,VCGT,≤ 0.2
20,SKTF,≤ 0.2
21,SDLW,≤ 0.2
22,GENG,≤ 0.2
23,EVAD,≤ 0.2
24,KTNH,≤ 0.2

row,Variant,one-hybrid fitness for binding parS DNA
1,ARTV,≤ 0.2
2,LRAI,≤ 0.2
3,QNHA,≤ 0.2
4,RAPE,≤ 0.2
5,ICLK,≤ 0.2
6,RKAI,≤ 0.2
7,GKGF,≤ 0.2
8,PCAM,≤ 0.2
9,MDRY,≤ 0.2
10,CQYR,≤ 0.2
11,GNKL,≤ 0.2
12,RNVS,0.674
13,DVNL,≤ 0.2
14,GAKG,≤ 0.2
15,PHQQ,≤ 0.2
16,QKIE,≤ 0.2
17,RGVY,≤ 0.2
18,WVWT,≤ 0.2
19,AKRH,≤ 0.2
20,IELR,≤ 0.2
21,QTFL,≤ 0.2
22,LCTS,≤ 0.2
23,DLAR,≤ 0.2
24,SSST,≤ 0.2

row,Variant,one-hybrid fitness for binding parS DNA
1,ELLT,≤ 0.2
2,LTYN,≤ 0.2
3,SQCG,≤ 0.2
4,APLI,≤ 0.2
5,RTTT,0.917
6,YQDL,≤ 0.2
7,TCSF,≤ 0.2
8,SFHI,≤ 0.2
9,CPYI,≤ 0.2
10,FGPS,≤ 0.2
11,WYYC,≤ 0.2
12,ITTT,≤ 0.2
13,NMHR,≤ 0.2
14,MGRS,≤ 0.2
15,EASS,≤ 0.2
16,MCMY,≤ 0.2
17,ASEF,≤ 0.2
18,DLPK,≤ 0.2
19,ELNS,≤ 0.2
20,KAPE,≤ 0.2
21,KITC,≤ 0.2
22,VPGF,≤ 0.2
23,KHTC,≤ 0.2
24,MRPA,≤ 0.2

row,Variant,one-hybrid fitness for binding parS DNA
1,KSPI,≤ 0.2
2,RTIK,≤ 0.2
3,KALP,≤ 0.2
4,PNHM,≤ 0.2
5,SHSA,≤ 0.2
6,QTMQ,≤ 0.2
7,DQRF,≤ 0.2
8,MLPL,≤ 0.2
9,QQPF,≤ 0.2
10,PPTD,≤ 0.2
11,TQWV,≤ 0.2
12,QKRM,≤ 0.2
13,TFGD,≤ 0.2
14,SEVF,≤ 0.2
15,KRCY,≤ 0.2
16,PHLS,≤ 0.2
17,KTST,≤ 0.2
18,TELC,≤ 0.2
19,TRCT,≤ 0.2
20,PVLA,≤ 0.2
21,DNNF,≤ 0.2
22,NADR,≤ 0.2
23,QMNC,≤ 0.2
24,QHHQ,≤ 0.2

row,Variant,one-hybrid fitness for binding parS DNA
1,TIAT,≤ 0.2
2,IIAT,≤ 0.2
3,PISV,≤ 0.2
4,QNSS,≤ 0.2
5,PKYW,≤ 0.2
6,RKDQ,≤ 0.2
7,CWKY,≤ 0.2
8,LNYR,≤ 0.2
9,RSNP,≤ 0.2
10,YLKH,0.358
11,KRWD,≤ 0.2
12,WGAR,≤ 0.2
13,CPTC,≤ 0.2
14,KMRF,≤ 0.2
15,PSHF,≤ 0.2
16,PMNR,≤ 0.2
17,NFPI,≤ 0.2
18,LGDL,≤ 0.2
19,SKYY,≤ 0.2
20,CEQI,≤ 0.2
21,SLNY,≤ 0.2
22,QNCC,≤ 0.2
23,QSFI,≤ 0.2
24,MKHC,≤ 0.2

row,Variant,one-hybrid fitness for binding parS DNA
1,AYTE,≤ 0.2
2,PQNL,≤ 0.2
3,TCVS,≤ 0.2
4,LKGL,≤ 0.2
5,QTLW,≤ 0.2
6,SSMR,≤ 0.2
7,KITY,≤ 0.2
8,SVHD,≤ 0.2
9,MYHY,≤ 0.2
10,MGLY,≤ 0.2
11,IGCR,≤ 0.2
12,PWGK,≤ 0.2
13,QAFQ,≤ 0.2
14,RQRQ,≤ 0.2
15,WVNS,≤ 0.2
16,WTSS,≤ 0.2
17,TRQF,≤ 0.2
18,ETNE,≤ 0.2
19,YRML,≤ 0.2
20,TSDG,≤ 0.2
21,KLSC,≤ 0.2
22,NDKC,≤ 0.2
23,HYPG,≤ 0.2
24,NLRS,≤ 0.2

row,Variant,one-hybrid fitness for binding parS DNA
1,NNLM,≤ 0.2
2,DYLG,≤ 0.2
3,DYCG,≤ 0.2
4,QNLL,≤ 0.2
5,HDPC,≤ 0.2
6,NTVW,≤ 0.2
7,MLIR,≤ 0.2
8,NATT,≤ 0.2
9,YGVC,≤ 0.2
10,MRIW,≤ 0.2
11,FSRR,≤ 0.2
12,AVPK,≤ 0.2
13,RGGW,≤ 0.2
14,TTKS,≤ 0.2
15,MNLW,≤ 0.2
16,QYMA,≤ 0.2
17,KGMW,≤ 0.2
18,QSDL,≤ 0.2
19,APRV,≤ 0.2
20,IFTT,≤ 0.2
21,LDMI,≤ 0.2
22,HFGI,≤ 0.2
23,SMRA,≤ 0.2
24,WPKS,≤ 0.2

row,Variant,one-hybrid fitness for binding parS DNA
1,KKRG,≤ 0.2
2,PPPT,≤ 0.2
3,MLNR,≤ 0.2
4,RNNK,≤ 0.2
5,RDSQ,≤ 0.2
6,IQTG,≤ 0.2
7,YRLR,≤ 0.2
8,WWQS,≤ 0.2
9,LITM,≤ 0.2
10,EAHN,≤ 0.2
11,VDRI,≤ 0.2
12,CHDG,≤ 0.2
13,FCAG,≤ 0.2
14,SESR,≤ 0.2
15,FIWG,≤ 0.2
16,MDHY,≤ 0.2
17,LVIM,≤ 0.2
18,LYMH,≤ 0.2
19,QSTV,≤ 0.2
20,MIKI,≤ 0.2
21,LERV,≤ 0.2
22,VRPC,≤ 0.2
23,LRHS,≤ 0.2
24,NTVH,≤ 0.2

row,Variant,one-hybrid fitness for binding parS DNA
1,RVPE,≤ 0.2
2,GDHG,≤ 0.2
3,IWRM,≤ 0.2
4,ICFR,≤ 0.2
5,RYPE,≤ 0.2
6,LKII,≤ 0.2
7,SIHG,≤ 0.2
8,RFVQ,≤ 0.2
9,AANW,≤ 0.2
10,CSIN,≤ 0.2
11,TGYL,≤ 0.2
12,VITL,≤ 0.2
13,DVER,≤ 0.2
14,QGWN,≤ 0.2
15,MECS,≤ 0.2
16,QCAM,≤ 0.2
17,KAYR,≤ 0.2
18,QKVW,≤ 0.2
19,YWKC,≤ 0.2
20,CHDR,≤ 0.2
21,QRHM,≤ 0.2
22,HNNC,≤ 0.2
23,RFWV,≤ 0.2
24,GEKT,≤ 0.2

row,Variant,one-hybrid fitness for binding parS DNA
1,TNDW,≤ 0.2
2,WTPT,≤ 0.2
3,SAMS,≤ 0.2
4,YECG,≤ 0.2
5,TRRP,≤ 0.2
6,QIES,≤ 0.2
7,AYKF,≤ 0.2
8,CPQC,≤ 0.2
9,DCQM,≤ 0.2
10,RFWE,0.211
11,RSYN,0.406
12,SEWI,≤ 0.2
13,NPAG,≤ 0.2
14,VNHR,≤ 0.2
15,ADNG,≤ 0.2
16,PRST,≤ 0.2
17,CLIT,≤ 0.2
18,YCTL,≤ 0.2
19,YDRG,≤ 0.2
20,SACG,≤ 0.2
21,SFMT,≤ 0.2
22,LFAL,≤ 0.2
23,TCMG,≤ 0.2
24,VSPP,≤ 0.2

row,Variant,one-hybrid fitness for binding parS DNA
1,QAGL,≤ 0.2
2,DHQQ,≤ 0.2
3,LNVT,≤ 0.2
4,QHME,≤ 0.2
5,NQLR,≤ 0.2
6,SGEG,≤ 0.2
7,IKVT,≤ 0.2
8,QPVV,≤ 0.2
9,IQLS,≤ 0.2
10,YMYR,≤ 0.2
11,QDAV,≤ 0.2
12,WIHR,≤ 0.2
13,CNGS,0.22
14,CRPV,≤ 0.2
15,GRDR,≤ 0.2
16,RHAD,≤ 0.2
17,GIHG,≤ 0.2
18,GIPC,≤ 0.2
19,PLSN,≤ 0.2
20,QGSF,≤ 0.2
21,CSVL,≤ 0.2
22,KTIE,≤ 0.2
23,YCAS,≤ 0.2
24,QRYI,≤ 0.2

row,Variant,one-hybrid fitness for binding parS DNA
1,HRAF,≤ 0.2
2,QIGT,≤ 0.2
3,YLMH,≤ 0.2
4,GDDS,≤ 0.2
5,YANG,≤ 0.2
6,FHEY,≤ 0.2
7,PKLC,≤ 0.2
8,VEKT,≤ 0.2
9,YDAS,≤ 0.2
10,GQVT,≤ 0.2
11,ARWA,≤ 0.2
12,MQPS,≤ 0.2
13,RMAV,≤ 0.2
14,RAPY,≤ 0.2
15,NRLH,≤ 0.2
16,GYRD,≤ 0.2
17,KTKF,≤ 0.2
18,QERS,≤ 0.2
